Whole data set: some 33,000 sequences, median “E-score (-0.5 to 0.5)” near -0.017, cut for the highest 2% near 0.3. This is one part of the list.
target: T1, Sut1 (UniProt P53032); experiment: PBM E-score (8-mer binding enrichment) (E-score (-0.5 to 0.5)); higher = stronger / more preferred TF binding; most listed sequences are background and not binding sites; details: protein concentration: 200 nM; construct: GST-full length
T1 sequence: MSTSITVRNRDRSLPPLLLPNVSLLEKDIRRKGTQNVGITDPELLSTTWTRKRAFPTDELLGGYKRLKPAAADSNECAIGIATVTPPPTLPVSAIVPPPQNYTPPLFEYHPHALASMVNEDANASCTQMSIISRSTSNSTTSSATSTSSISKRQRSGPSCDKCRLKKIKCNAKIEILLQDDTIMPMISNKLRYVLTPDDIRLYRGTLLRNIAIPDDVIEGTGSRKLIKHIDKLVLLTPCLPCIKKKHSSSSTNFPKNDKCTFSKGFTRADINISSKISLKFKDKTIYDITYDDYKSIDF
Method in brief: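 Universal all-10-mer Agilent arrays, fresh or stripped once, were converted to double-stranded form by primer extension. GST-tagged yeast transcription factors from PURExpress in vitro transcription/translation, full-length or DNA-binding domain only, were applied at about 100-200 nM and detected with fluorescent anti-GST. After masliner normalisation, the Universal PBM Analysis Suite scored each ungapped eight-base word together with its reverse complement by E-score.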

| Sequence | PBM E-score |
| --- | --- |
| GTAGCAGA | 0.0197 |
| TAGAACCA | 0.12 |
| AAGGAAGC | -0.117 |
| GCAAGATA | 0.063 |
| CCTGTGGA | -0.271 |
| GAGGTTTA | 0.127 |
| GTAATAAC | 0.104 |
| AGAGGTGC | -0.202 |
| CAGGCACA | -0.317 |
| CTAGATGA | -0.0501 |
| GTGCTGGA | -0.268 |
| ATGCCGGC | -0.0395 |
| GCGACCGC | -0.23 |
| ACGCTAAC | -0.22 |
| AGGGCTTA | -0.334 |
| ACCTTCCA | -0.124 |
| ACGACCTA | -0.0461 |
| AATTCGCT | 0.271 |
| ATGCAGTG | -0.0663 |
| AGCGTGAG | -0.265 |
| AATGTGGT | 0.0399 |
| AATAACCC | 0.135 |

| Sequence | PBM E-score |
| --- | --- |
| TAACAAGA | 0.123 |
| CGGACTCA | 0.429 |
| GATATGAC | 0.0419 |
| AAATACAG | 0.0417 |
| GGACTCCC | -0.0455 |
| TAATACGA | 0.0709 |
| TCTAGAAA | 0.06 |
| CAATCCCC | 0.097 |
| AGACCTAA | -0.109 |
| AGCGCTAA | 0.117 |
| CTCTATAC | 0.00445 |
| ACCGTTTA | 0.00805 |
| ATTAGTGG | 0.173 |
| AAGTTAAG | -0.0496 |
| AGTTCAAC | 0.113 |
| CATTAGGC | -0.191 |
| CTCCAACA | 0.0974 |
| CATACGAC | 0.0661 |
| ATACTCAA | 0.11 |
| CATGCCGA | -0.0693 |
| AGTCTACA | -0.0739 |
| CAACTGTG | -0.0883 |

| Sequence | PBM E-score |
| --- | --- |
| AGGGGGCG | -0.222 |
| GTTTCTGA | 0.112 |
| CGCGAGCA | -0.227 |
| ATAGAATG | 0.0365 |
| CCCTAAAC | -0.118 |
| TGCTCGAA | -0.0479 |
| ACCGTAAC | -0.0238 |
| AGACTAAC | 0.0744 |
| CGGGTCTC | -0.0622 |
| CGGACCAA | 0.264 |
| GGGAGTTA | -0.0288 |
| AACCAGAT | 0.0291 |
| ATTTCTGA | 0.0444 |
| TACCACCA | 0.0245 |
| GCATGGGC | -0.174 |
| CTAAACGC | 0.0262 |
| AAGCCCCC | -0.321 |
| GGGGCAAC | -0.217 |
| AGTTTTCG | 0.181 |
| ATACTTAG | -0.0112 |
| GGCCTGCA | -0.402 |
| CCCTCATA | -0.256 |

| Sequence | PBM E-score |
| --- | --- |
| ACCTATAC | 0.115 |
| ATTGTAAA | 0.255 |
| ATTCAACG | 0.206 |
| ATGGACTC | -0.0566 |
| TATAGATA | 0.228 |
| CTGGGTCA | -0.152 |
| GGCGGCAC | -0.0808 |
| CCCTGTTA | 0.0626 |
| GAGCTGTA | -0.0784 |
| AGTGGTGG | -0.162 |
| AAATAAAT | 0.329 |
| CATGTGCG | -0.163 |
| AGGGGCTA | -0.289 |
| CGTCACTC | 0.12 |
| TCACGCAA | 0.205 |
| CGTGCCAA | -0.0324 |
| AAAGTTGA | 0.0344 |
| CCTCTACA | -0.112 |
| ATGTTTGG | 0.142 |
| GATCTTGA | 0.0152 |
| AAGCGCCG | 0.152 |
| CCAACAAC | 0.0768 |

| Sequence | PBM E-score |
| --- | --- |
| GGACGAAA | 0.0248 |
| TAAAAGCA | 0.192 |
| AGGCCACC | -0.119 |
| TCTTGGAA | 0.173 |
| AGAATAAT | 0.0203 |
| AGGCTCAC | -0.307 |
| CACTTAAA | 0.189 |
| AGCATTTC | 0.117 |
| GACCCCCC | -0.173 |
| ATACTTCG | 0.0847 |
| CTTCGGAA | 0.335 |
| GTGGGTTA | -0.16 |
| CATAATAC | 0.159 |
| TCAAAGAA | 0.0215 |
| ATTCTAGC | 0.00544 |
| CAGATATG | -0.0355 |
| ATACTAAT | 0.0774 |
| GAAGGGTA | -0.132 |
| GCATTGGA | 0.0194 |
| GCCATGCC | -0.125 |
| GCTCCAGA | -0.199 |
| AATCCCAC | -0.00843 |
